Reference: the supplement of paper PMC4604168 (melanoma cell lines)
This is one part of the list. Repeats are few or missing, and single values can be far off.

tested on: A101D; test: cell count relative to DMSO control; melanoma cells; higher = more viable cells; settings: library dose: low library concentration; 72 h
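Also: cell number obtained by counting DAPI-stained nuclei in high-throughput microscope images with image analysis software, screen run in 1,536-well plates.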

Row | Structure (SMILES) | cell count [%]
1 | Cc1cn(-c2cc(NC(=O)c3ccc(C)c(Nc4nccc(-c5cccnc5)n4)c3)cc(C(F)(F)F)c2)cn1 [nilotinib] + C[C@]1(O)C[C@@H](c2nc(-c3ccc4ccc(-c5ccccc5)nc4c3)c3c(N)nccn32)C1 [OSI906] (first compound 0.2 µM, partner dose 0.4 µM) | 79.7
2 | CC(C)C[C@H](NC(=O)[C@H](Cc1ccccc1)NC(=O)c1cnccn1)B(O)O [Bortezomib] + Nc1nc(F)nc2c1ncn2[C@@H]1O[C@H](CO)[C@@H](O)[C@@H]1O [fludarabine] (first compound 0.001 µM, partner dose 0.2 µM) | 36.3
3 | COc1ccc(C2=N[C@@H](c3ccc(Cl)cc3)[C@@H](c3ccc(Cl)cc3)N2C(=O)N2CCNC(=O)C2)c(OC(C)C)c1 [Nutlin-3] + CNC(=O)c1cc(Oc2ccc(NC(=O)Nc3ccc(Cl)c(C(F)(F)F)c3)cc2)ccn1 [sorafenib] (first compound 0.1 µM, partner dose 0.4 µM) | 119
4 | COc1ccc(C2=N[C@@H](c3ccc(Cl)cc3)[C@@H](c3ccc(Cl)cc3)N2C(=O)N2CCNC(=O)C2)c(OC(C)C)c1 [Nutlin-3] + COCC[n+]1c2c(n(Cc3cnccn3)c1C)C(=O)c1ccccc1C2=O [YM155] (first compound 0.1 µM, partner dose 0.0004 µM) | 97
5 | COc1ccc(C2=N[C@@H](c3ccc(Cl)cc3)[C@@H](c3ccc(Cl)cc3)N2C(=O)N2CCNC(=O)C2)c(OC(C)C)c1 [Nutlin-3] + Nc1nc(F)nc2c1ncn2[C@@H]1O[C@H](CO)[C@@H](O)[C@@H]1O [fludarabine] (first compound 0.1 µM, partner dose 0.2 µM) | 90
6 | COc1ccc(C2=N[C@@H](c3ccc(Cl)cc3)[C@@H](c3ccc(Cl)cc3)N2C(=O)N2CCNC(=O)C2)c(OC(C)C)c1 [Nutlin-3] + CC(C)C[C@H](NC(=O)[C@H](Cc1ccccc1)NC(=O)c1cnccn1)B(O)O [Bortezomib] (first compound 0.1 µM, partner dose 0.001 µM) | 46.7
7 | CC(C)C[C@H](NC(=O)[C@H](Cc1ccccc1)NC(=O)c1cnccn1)B(O)O [Bortezomib] + CNC(=O)c1cc(Oc2ccc(NC(=O)Nc3ccc(Cl)c(C(F)(F)F)c3)cc2)ccn1 [sorafenib] (first compound 0.001 µM, partner dose 0.4 µM) | 24.2
8 | Cc1cc(Nc2cc(N3CCN(C)CC3)nc(/C=C/c3ccccc3)n2)n[nH]1 + Nc1ccn([C@@H]2O[C@H](CO)[C@@H](O)C2(F)F)c(=O)n1 [gemcitabine] (first compound 0.04 µM, partner dose 0.0004 µM) | 95.2
9 | CC(C)C[C@H](NC(=O)[C@H](Cc1ccccc1)NC(=O)c1cnccn1)B(O)O [Bortezomib] + Cc1nc(Nc2ncc(C(=O)Nc3c(C)cccc3Cl)s2)cc(N2CCN(CCO)CC2)n1 [dasatanib] (first compound 0.001 µM, partner dose 0.004 µM) | 22.3
10 | COc1ccc(C2=N[C@@H](c3ccc(Cl)cc3)[C@@H](c3ccc(Cl)cc3)N2C(=O)N2CCNC(=O)C2)c(OC(C)C)c1 [Nutlin-3] + C[C@@H](Oc1cc(-c2cnn(C3CCNCC3)c2)cnc1N)c1c(Cl)ccc(F)c1Cl [Crizotinib] (first compound 0.1 µM, partner dose 0.2 µM) | 98.1
11 | COc1ccc(C2=N[C@@H](c3ccc(Cl)cc3)[C@@H](c3ccc(Cl)cc3)N2C(=O)N2CCNC(=O)C2)c(OC(C)C)c1 [Nutlin-3] + OCc1c[nH]c2ccccc12 [Indole-3-carbinol] (first compound 0.1 µM, partner dose 0.8 µM) | 95.4
12 | COc1ccc(C2=N[C@@H](c3ccc(Cl)cc3)[C@@H](c3ccc(Cl)cc3)N2C(=O)N2CCNC(=O)C2)c(OC(C)C)c1 [Nutlin-3] + CS(=O)(=O)CCNCc1ccc(-c2ccc3ncnc(Nc4ccc(OCc5cccc(F)c5)c(Cl)c4)c3c2)o1 [lapatinib] (first compound 0.1 µM, partner dose 0.8 µM) | 96.3
13 | Cc1cn(-c2cc(NC(=O)c3ccc(C)c(Nc4nccc(-c5cccnc5)n4)c3)cc(C(F)(F)F)c2)cn1 [nilotinib] + CC(=O)c1c(C)c2cnc(Nc3ccc(N4CCNCC4)cn3)nc2n(C2CCCC2)c1=O [palbociclib] (first compound 0.2 µM, partner dose 0.04 µM) | 73.7
14 | Cc1cn(-c2cc(NC(=O)c3ccc(C)c(Nc4nccc(-c5cccnc5)n4)c3)cc(C(F)(F)F)c2)cn1 [nilotinib] + CCN(CC)CCNC(=O)c1c(C)[nH]c(/C=C2\C(=O)Nc3ccc(F)cc32)c1C [sunitinib] (first compound 0.2 µM, partner dose 0.4 µM) | 90.5
15 | Cc1cc(Nc2cc(N3CCN(C)CC3)nc(/C=C/c3ccccc3)n2)n[nH]1 + COc1ccc(Cl)c(Nc2nc3ccccc3nc2NS(=O)(=O)c2cccc(NC(=O)C(C)(C)N)c2)c1 [XL147] (first compound 0.04 µM, partner dose 0.8 µM) | 88.2
16 | COc1ccc(C2=N[C@@H](c3ccc(Cl)cc3)[C@@H](c3ccc(Cl)cc3)N2C(=O)N2CCNC(=O)C2)c(OC(C)C)c1 [Nutlin-3] + NC1(c2ccc(-c3nc4ccn5c(=O)[nH]nc5c4cc3-c3ccccc3)cc2)CCC1 [MK2206] (first compound 0.1 µM, partner dose 0.4 µM) | 90
17 | CC(C)C[C@H](NC(=O)[C@H](Cc1ccccc1)NC(=O)c1cnccn1)B(O)O [Bortezomib] + CS(=O)(=O)CCNCc1ccc(-c2ccc3ncnc(Nc4ccc(OCc5cccc(F)c5)c(Cl)c4)c3c2)o1 [lapatinib] (first compound 0.001 µM, partner dose 0.8 µM) | 21.9
18 | CC(C)C[C@H](NC(=O)[C@H](Cc1ccccc1)NC(=O)c1cnccn1)B(O)O [Bortezomib] + C[C@]1(c2nc3c(C(N)=O)cccc3[nH]2)CCCN1 [Veliparib] (first compound 0.001 µM, partner dose 1.4 µM) | 49.1
19 | Cc1cc(Nc2cc(N3CCN(C)CC3)nc(/C=C/c3ccccc3)n2)n[nH]1 + COCC[n+]1c2c(n(Cc3cnccn3)c1C)C(=O)c1ccccc1C2=O [YM155] (first compound 0.04 µM, partner dose 0.0004 µM) | 93.6
20 | Cc1cn(-c2cc(NC(=O)c3ccc(C)c(Nc4nccc(-c5cccnc5)n4)c3)cc(C(F)(F)F)c2)cn1 [nilotinib] + CC(C)C[C@H](NC(=O)[C@H](Cc1ccccc1)NC(=O)c1cnccn1)B(O)O [Bortezomib] (first compound 0.2 µM, partner dose 0.001 µM) | 70.2
21 | Cn1c(=O)n(-c2ccc(C(C)(C)C#N)cc2)c2c3cc(-c4cnc5ccccc5c4)ccc3ncc21 + CN1CCN(c2ccc3nc(-c4c(N)c5c(F)cccc5[nH]c4=O)[nH]c3c2)CC1 [Dovitinib] (first compound 0.004 µM, partner dose 0.1 µM) | 83.4
22 | CC(C)C[C@H](NC(=O)[C@H](Cc1ccccc1)NC(=O)c1cnccn1)B(O)O [Bortezomib] + CCCS(=O)(=O)Nc1ccc(F)c(C(=O)c2c[nH]c3ncc(Cl)cc23)c1F [PLX4720] (first compound 0.001 µM, partner dose 0.08 µM) | 21.1
23 | Cc1cn(-c2cc(NC(=O)c3ccc(C)c(Nc4nccc(-c5cccnc5)n4)c3)cc(C(F)(F)F)c2)cn1 [nilotinib] + OCc1c[nH]c2ccccc12 [Indole-3-carbinol] (first compound 0.2 µM, partner dose 0.8 µM) | 98.9
24 | CC(C)C[C@H](NC(=O)[C@H](Cc1ccccc1)NC(=O)c1cnccn1)B(O)O [Bortezomib] + Cn1c(Nc2ccc(C(F)(F)F)cc2)nc2cc(Oc3ccnc(-c4ncc(C(F)(F)F)[nH]4)c3)ccc21 [CHIR265] (first compound 0.001 µM, partner dose 0.08 µM) | 17.9
25 | Cc1cc(Nc2cc(N3CCN(C)CC3)nc(/C=C/c3ccccc3)n2)n[nH]1 + Cn1nnc2c(C(N)=O)ncn2c1=O [temozolomide] (first compound 0.04 µM, partner dose 2 µM) | 94.3
26 | Cc1cn(-c2cc(NC(=O)c3ccc(C)c(Nc4nccc(-c5cccnc5)n4)c3)cc(C(F)(F)F)c2)cn1 [nilotinib] + Cn1nnc2c(C(N)=O)ncn2c1=O [temozolomide] (first compound 0.2 µM, partner dose 2 µM) | 86.1
